From PubChem BioAssay AID504706 (National Center for Advancing Translational Sciences (NCATS), 2011)
Hit rate of the full screen: of about 320,000 compounds, about 200 (0.062%) were called active. This list was built around the results that the source calls inconclusive (neither active nor inactive); the mix of calls is not that of the screen. Calls follow the shape of the dose curve; as a rule, active = well fitted activation curve with a large enough effect; inconclusive = small, poorly fitted or top-dose-only effect; inactive = no such curve, though single readings can be large or run the other way. No potency is given beside an inconclusive call; the fits are too rough.

experiment: qHTS assay for re-activators of p53 using a Luc reporter; conditions: H1299 p53-A138V BP100-luciferase reporter, luminescence, 24 h; series mostly up to 92.2 µM; also: nearly all actives have a fitted effect of over 45% in size
Outline: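 H1299 (p53-null), stable ts p53-A138V + BP100-Luc; 1000 cells/well, Opti-MEM/10% FBS; cpd 4 pt, 1:5; 24 h, 37 deg C, 5% CO2; detection reagent 10 min RT; luminescence.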
Potency is read from the fitted curve at half-maximal effect; tags tell the direction and shape of the fitted curve.

| SMILES | Potency |
| --- | --- |
| O=c1[nH]c(N/N=C/c2ccccc2)nc2ccccc12 | inconclusive [activator, full curve, poor fit] |
| O=C(Cc1cccs1)N1CCN(S(=O)(=O)c2ccc(Cl)c(C(F)(F)F)c2)CC1 | inactive |
| O=C(N/N=C/c1cc([N+](=O)[O-])ccc1O)c1cc(-c2ccccc2)nc2ccccc12 | inconclusive [activator, full curve, poor fit] |
| Cc1nc2scc(C)n2c(=O)c1S(=O)(=O)NCc1ccccc1 | inconclusive [activator, single point] |
| O=C(NCCc1ccccc1)C1CCN(S(=O)(=O)N2CCOCC2)CC1 | inactive |
| Cc1ccc(N2CC(C(=O)N/N=C/c3c(F)cccc3Cl)CC2=O)cc1 (stereo not given) | inconclusive [activator, single point] |
| O=C(OCC(=O)N1CCC(Cc2ccccc2)CC1)c1ccc(CO)cc1 | inactive |
| O=C(COc1ccc2ccc(=O)oc2c1)Nc1cccc(S(=O)(=O)N2CCCCC2)c1 | inactive |
| CC(NCc1ccc(OCc2ccc(Cl)cc2)cc1)C(O)c1ccccc1 (stereo not given) | inactive |
| CCOc1ccc(CNc2ccc3c(c2)ncn3C)cc1 | inconclusive [activator, partial curve, poor fit] |
| Cc1ccc(OCC(=O)N2CCC3(CC2)CC(=O)c2ccccc2O3)cc1 | inactive |
| O=C(Cc1ccccc1)NNC(=O)c1ccc(NC(=O)c2ccccc2)cc1 | inactive |
| CCOC(=O)c1c(C)[nH]c2cc(Br)c(O)cc12 | inconclusive [activator, partial curve, poor fit] |
| CC(C)c1ccc(NC(=O)c2csnn2)cc1 | inconclusive [activator, partial curve, poor fit] |
| Cc1ccc(CNC(=O)C(=O)NCC2OCCN2S(=O)(=O)c2ccc(C)cc2)cc1 (stereo not given) | inactive |
| NC(=O)COC(=O)c1cccc(NS(=O)(=O)/C=C/c2ccccc2)c1 | inconclusive [activator, single point] |
| CCCCNC(=O)Nc1ccccc1Br | inconclusive [activator, partial curve, poor fit] |
| OCc1ccc(-c2nn(Cc3ccccc3)c3ccccc23)o1 | inactive |
| O=C(/C=C/c1ccc2c(c1)OCO2)N1CCN(c2ccccc2F)CC1 | inactive |
| CC1CCCN(Cc2c(O)ccc3c(=O)c(-c4nc5ccccc5s4)c(N)oc23)C1 (stereo not given) | inactive |
| C=CCn1c(C)cc(C(=O)COc2nncc3ccccc23)c1C | inconclusive [activator, partial curve, poor fit] |
| Cc1ccc2[nH]c(=O)c(C(c3nnnn3CC3CCCO3)N3CCc4ccccc4C3)cc2c1 (stereo not given) | inactive |
| O=C(Oc1ccc(C(=S)N2CCOCC2)cc1)c1ccc([N+](=O)[O-])cc1 | inconclusive [activator, full curve, poor fit] |
| CCOc1ccc(/C=C\C(C)=N\O)cc1 | inconclusive [activator, full curve, poor fit] |

| SMILES | Potency |
| --- | --- |
| Cc1ccc(C)n1-c1nnc(N2CCC(C(=O)N3CCN(C)CC3)CC2)s1 | inconclusive [activator, partial curve, poor fit] |
| CS(=O)(=O)n1nc(OC(=O)c2cccc3ccccc23)cc1N | inconclusive [activator, partial curve, poor fit] |
| CCOc1ccc2nc(SCC(=O)NC3CCCCC3)[nH]c2c1 | inconclusive [activator, full curve, poor fit] |
| Cc1ccc(-c2nc3ccccc3o2)cc1NC(=S)NC(=O)c1cc2ccccc2o1 | inconclusive [activator, partial curve, poor fit] |
| C(=C\c1nc(N2CCCCCC2)c2ccccc2n1)/c1ccccc1 | inconclusive [activator, partial curve, poor fit] |
| Cc1cc(C)c2sc(NNC(=O)c3ccc(S(=O)(=O)N4CCc5ccccc5C4)cc3)nc2c1 | inconclusive [activator, partial curve, poor fit] |
| O=C(NNC1OC(CO)C(O)C(O)C1O)c1cccc(Br)c1 (stereo not given) | inconclusive [activator, partial curve, poor fit] |
| CCOC(=O)N/N=C\c1ccc(OC/C=C/c2ccccc2)cc1 | inconclusive [activator, partial curve, poor fit] |
| COc1ccc2cc(C3=CCCCC3)ncc2c1 | inconclusive [activator, partial curve, poor fit] |
| CCOc1ccc2nc(NC(=O)CSCC(=O)Nc3cc(C)on3)sc2c1 | inconclusive [activator, full curve, poor fit] |
| O=C(OCC(=O)N1CCN(c2ccccc2)CC1)c1ncc(Cl)c(Cl)c1Cl | inactive |
| COc1ccc(CCNS(=O)(=O)c2cc(C(=O)O)c(Cl)cc2Cl)cc1 | inconclusive [activator, single point] |
| COc1cc2cc(C#N)c(SCC(=O)N3CCOCC3)nc2cc1OC | inactive |
| Cc1nc(SCc2nc3ccccc3[nH]2)c2oc3cc([N+](=O)[O-])ccc3c2n1 | inactive |
| O=C(COC(=O)Cn1cnc2ccccc21)Nc1ccc2c(c1)C(=O)c1ccccc1C2=O | inconclusive [activator, full curve, poor fit] |
| CCOC(=O)N1CCC(NC(=O)Cn2cc3c(n2)CCC(C)C3)CC1 (stereo not given) | inactive |
| CC(=O)NCCc1ccc(C(=O)COC(=O)C2CCCCC2)cc1 | inconclusive [activator, partial curve, poor fit] |
| COc1ccccc1C(=O)Nc1ccnn1C1CCN(CC2CC=CCC2)CC1 (stereo not given) | inconclusive [activator, single point] |
| O=C(Nc1ccc2c(c1)OCCO2)c1ccc(S(=O)(=O)N2CCCCC2)cc1 | inconclusive [activator, partial curve, poor fit] |
| O=C(Nc1ccc(CN2CCOCC2)cc1)c1ccc(F)cc1 | inconclusive [activator, partial curve, poor fit] |
| COc1ccc2[nH]c3c(c2c1)CCN1C(=O)C(CC(=O)NCCc2ccccn2)C[C@H](C(=O)N2CCCCC2)[C@@]31CCc1ccccc1 (stereo not given in full) | inactive |
| CN1CCSc2ccc(C(=O)Nc3cccc(F)c3)cc21 | inconclusive [activator, partial curve, poor fit] |
| CCCOC1CCCN(C(=O)CCc2nnc(Cc3cccc(C)c3)o2)C1 (stereo not given) | inactive |
| COc1ccc2o/c(=N/NC(=O)c3cccs3)c(C(N)=O)cc2c1 | inconclusive [activator, single point] |

| SMILES | Potency |
| --- | --- |
| CNC(=S)N/N=C/c1ccc(OCC(=O)Nc2c(C)cc(C)cc2C)c(OC)c1 | inactive |
| CC(C)CC(=O)NC(=S)Nc1ccccc1C(F)(F)F | inconclusive [activator, partial curve, poor fit] |
| CCOC(=O)N/N=C\c1ccc(-c2cc(Cl)ccc2Cl)o1 | inactive |
| OCCn1c(-c2ccccc2)csc1=Nc1ccccc1 | inconclusive [activator, partial curve] |
| CCOc1ccc(Br)cc1S(=O)(=O)NC1=NCCCCC1 | inactive |
| COc1ccc(/C=N/NC(=O)c2ccccc2O)cc1Cn1nnc2ccccc21 | inactive |
| C(=N\N1CCN(c2ccccn2)CC1)/c1ccco1 | inactive |
| O=C(COC(=O)C12CC3CC(CC(O)(C3)C1)C2)Nc1ccc(Cl)cc1F | inconclusive [activator, full curve, poor fit] |
| COc1cccc(Cn2cccc(NC(=O)Nc3ccc(C#N)cc3)c2=O)c1 | inactive |
| Cc1oc(-c2cc(F)ccc2F)nc1CN1CCN(c2ncnc3ccccc23)CC1 | inactive |
| O=C(COC(=O)c1ccc(Cl)cc1O)NCCN1C(=O)CSC1=O | inactive |
| O=C(O)CSc1nnc(-c2ccc(Cl)cc2)n1-c1ccccc1 | inconclusive [activator, single point] |
| O=C(CNC(=O)c1ccccc1F)c1ccc(Br)cc1 | inconclusive [activator, partial curve, poor fit] |
| CC1CCCC(C)N1C(=O)COC(=O)Cc1ccc(Cl)cc1 (stereo not given) | inconclusive [activator, single point] |
| O=C(CN1C(=O)CC(c2ccccc2)=Nc2ccccc21)NCc1ccccc1 | inactive |
| COc1ccc(CCNc2nc(C)nc3c2nnn3Cc2ccccc2)cc1OC | inconclusive [activator, single point] |
| CCOC(=O)COc1c(OC)cc(Cl)cc1C1Nc2ccccc2C(=O)N1c1ccc(F)cc1 (stereo not given) | inactive |
| O=C(O)c1ccc(-c2nnc(-c3cccc(Br)c3)o2)cc1 | inconclusive [activator, full curve, poor fit] |
| CC1CCN(c2nc(N(C)c3ccccc3)nc(N)c2[N+](=O)[O-])CC1 | inconclusive [activator, partial curve, poor fit] |
| CC1CC1c1ccc(/C=C(\C#N)C(=O)Nc2ccc(Cl)cc2)o1 (stereo not given) | inconclusive [activator, full curve, poor fit] |
| CC1CC(C)CN(CCCNC(=O)c2ccc3nc(N4CCCCC4)sc3c2)C1 (stereo not given) | inconclusive [activator, full curve, poor fit] |
| Cc1cc(C(=O)COc2cccnc2[N+](=O)[O-])c(C)n1Cc1ccco1 | inactive |
